Experimental data taken from PMC10726135.
The other results are listed elsewhere or left out. At the low end of the ranking, values are background and their order means little. The protein was read in a cell extract, so binding may be indirect.

Target: T1, HNF4alpha2 (COS-7 nuclear extract) (UniProt P41235)
T1 sequence: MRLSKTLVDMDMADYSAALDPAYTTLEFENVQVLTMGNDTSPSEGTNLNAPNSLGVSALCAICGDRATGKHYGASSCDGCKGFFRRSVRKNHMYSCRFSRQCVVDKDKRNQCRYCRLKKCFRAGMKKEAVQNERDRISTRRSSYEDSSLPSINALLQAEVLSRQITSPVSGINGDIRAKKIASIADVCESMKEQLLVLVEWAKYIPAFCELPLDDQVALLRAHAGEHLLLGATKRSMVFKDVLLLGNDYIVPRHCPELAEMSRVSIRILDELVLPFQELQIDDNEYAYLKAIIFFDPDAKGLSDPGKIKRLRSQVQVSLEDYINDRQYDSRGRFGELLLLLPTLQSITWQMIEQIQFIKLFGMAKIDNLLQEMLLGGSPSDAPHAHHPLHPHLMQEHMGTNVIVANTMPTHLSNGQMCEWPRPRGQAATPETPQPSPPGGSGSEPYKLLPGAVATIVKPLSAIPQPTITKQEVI
Experiment: protein-binding microarray
Settings: COS-7 nuclear extract on double-stranded Agilent 4x180k PBM; binding buffer, salt, pH and temperature not given; high values mean tight binding; double strand, one strand shown; sequences stand for … in …GCCTAGGGAGATTAGAGTATCGGTCGA

Sequence | binding signal (log2 normalized intensity)
AGGGTAGTTTGGAGATGCCGTTAAGCAGAT | 0.555
GTGTTTAATGTTTTCATTCTGATTTGCACA | 0.839
CCCCAGTAACAAAGGAAAGAGCTAACATAT | -1.19
TCAACTATTTAAATAGCTCAAGCCTGTTCC | -1.04
CGATAAACCCAGGCAATGACTCCAAAGTTC | 2.05
GCTCGTGTCATCTCTGGCTAACAGGTCAGG | 1.85
AGTCCAAAGGTCAGCCGGGGAAGGTGCAGG | 5
CTTTGTCCTAGTGCATGCTGGGAGTCGGGC | 0.806
CCAGTGAGTGCAGCAGTGTACTTGAGCTTC | -0.0304
TATGTCAGGCTCAGGGACCCAGCGGAATGC | -1.13
CACCAAGGCCGGAAAAGATTAGATTGCTCA | -1.06
TTTATCTCCTCCCCTTGAGACTTTAATCTC | 2.33
AGTCAGTTCCCCTGCGGACTCTGGAACCAT | 3.16
TGTGGTAATAAGTTGGTGGACGCTGGGGAA | 0.861
ACTAAATGCAGCCTTGGGCAAGTTACTTAA | -1.11
AGATGACCTTTGCCCTTGACTTTTTGTGGG | 7.08
TGGTTGCTAAGAGACAGCTCCACAGCTGGA | -1.12
ATGACCCAAACTTCACAAAAATGAGTGCAA | -0.838
ACTAAATCTCTCCTAGAGAAAGGGGCTTAG | -1.13
ATAATTAGGTCTTTTGGTGAGTCTTTGCCC | 1.68
CCGGGGCCTGGGCGCGCCTGCCCTTCGCTC | 2.22
AAATCTGATCTTTCCTCTAAGTGCCCAAAT | 0.727
GGACACAGTTCAGGCCATCACACTCCTACC | -1.07
TACCAGCTGGGGTTTTACCAGGCACGCATG | -0.996
GTGTGCTCGAGGTGGACTTTCCCCCCTCAC | 6.09

Sequence | binding signal (log2 normalized intensity)
CTCCTCTGCCTCCAGCTGTTGGTGACTGAC | 0.79
GCTCCCATCCCCCCAAAGGCTCTCTGTTGA | 3.99
CTCATTCCTATTCGGTGCTGACCTTTGTTC | 7.77
CCCTTGACCAAGCAGCTGTTTGACCAAAGC | -1.08
TCCGCTTGATGCCTGTTGCTCAGAATTACT | -1.21
TATGGCCCACAAAGCCTAAAATATTCACTA | -1.14
AAAGAATTCGTCCAGGGCCGCCCAAGCGAA | -0.993
AACAAACAAAAACCAAAAAAACTTAACAGA | -1.13
GACAGCAGGAGTGGGAGAAAGCTTTGGACT | 1.77
GTTATCTCGGGGATGGCATGTCTCTGGTCG | 1.64
ACTGTCCTAGGTGCTGAAGATGCAACAGTG | 0.985
AAAGGAGGAATCTGTGAAGGTCAGGAGCCC | -0.39
ATCCACATGTGGGTCCAAAGAACATTGCAT | 2.22
AACAAGTAAGGAAGACAAGACAAGGAAGTT | -1.13
CAAAACTGGCAAAACTGGTCAATATCCACA | -0.887
TGGGGTTCAGCCACACCAAGTCTGGACCTG | 1.94
TCTTTGTTCAGAGGGCATGTTGAGTGGAAT | 2.13
CAGAAGGGACTAGCCTTATCTCAGATGAGA | -1.09
TCTAGTCTAGTCCAAACTGCAACCTGATAA | -1.14
AGGGAGATAGAGAAAGAAAAAGTACACACC | -1.09
AGGCAAGATCCGAAGTCTAGGACGTTATCA | -1.14
TTGGGACAAAGTTTGCCTGGGCTCTAGACA | -1.05
CCTCTTCTGGGAAGAGTAGATAAGCAGATC | -1.2
GTGTTTATGGCAAATTGATATCCTGTCTAT | 0.807
CTTACATTTTGCTCTTTGTACCGTTTGAAC | 3.49

Sequence | binding signal (log2 normalized intensity)
AGCAGAAACATAGAAAGGAGTACACACCAT | -1.1
ACATTTCAAAAGCTGTGTGCTCCTGTAGAA | -1.07
ACATGGTTCACTGATTACTGGATGTATAAT | 0.79
GGGTCTTTTTGACCTGTATCTTGTGGTGAC | 2.24
ATGGTCAGTGTTGATAAGAAAGCTGCAGTC | 0.747
TGGACTTTGAGTCATAAGAAACATTTTACA | 2.86
CTCCCACGTCGCTGCCGCAGATCCCCGCTC | -1.05
TGAGGACTTTGGTCTTATTACTAAGTGAGA | 2.3
GGGCCGCCTTGGAAAACCCGGCGCGGACAT | -1.23
AGACGGGGCTCTCAGAATCTGCCGATCACT | -1.01
TTCTTAAGATAAGGACTGTTGGACCTCGAA | 2.44
TTTGCTATGGCCTTTCTTCATTGTTCGCAT | 0.0537
TGCCTCCTTCAAGGATTAGCAGATAAATCT | -0.904
GGACTTGATGATTGACACTATTATTACTGT | 1.26
CGCCTTGCACAAATTTCAGATATCTGAATG | 0.246
GATGATTCCCTTATCTTCTCCCCTGCCAAA | 3.36
GACCTGTTTGTCTTGCTGGGGAGATCAGAG | 1.01
GCCTTTCAGGCAGGAGACGATGGTTTTCCA | -1.18
ATTTATCTTTCCAGATTGTTCTATTAACCT | 1.61
TTAGTCCATGACGCAAGCGAGTAAGGCCCG | -1.08
CTGATTAGCCTTTCCAAAGGAGGCAATGAG | -1.12
CGATTATCTACAGATCTGGAGCCAGCAAGG | -1.12
AGGCAATGTCACGTTTATTTCTAACAGCTG | -0.916
